Test results reported in publication PMC4336329 (PLoS ONE, 2015).
The whole screen tested about 310,000 compounds, of which about 14,000 (4.5%) showed an effect of 50% or more. The effect is printed as a negative number. The list shows a part of the results.

These compounds were tested against human ether-à-go-go-related gene (hERG) potassium channel (human, UniProt Q12809) (assay: primary screen, population patch clamp on CHO cells stably expressing hERG).
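Also: peak tail current of the secondary pulse compared with the same well before compound.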

Sequence of human ether-à-go-go-related gene (hERG) potassium channel (Q12809 whole entry, looked up): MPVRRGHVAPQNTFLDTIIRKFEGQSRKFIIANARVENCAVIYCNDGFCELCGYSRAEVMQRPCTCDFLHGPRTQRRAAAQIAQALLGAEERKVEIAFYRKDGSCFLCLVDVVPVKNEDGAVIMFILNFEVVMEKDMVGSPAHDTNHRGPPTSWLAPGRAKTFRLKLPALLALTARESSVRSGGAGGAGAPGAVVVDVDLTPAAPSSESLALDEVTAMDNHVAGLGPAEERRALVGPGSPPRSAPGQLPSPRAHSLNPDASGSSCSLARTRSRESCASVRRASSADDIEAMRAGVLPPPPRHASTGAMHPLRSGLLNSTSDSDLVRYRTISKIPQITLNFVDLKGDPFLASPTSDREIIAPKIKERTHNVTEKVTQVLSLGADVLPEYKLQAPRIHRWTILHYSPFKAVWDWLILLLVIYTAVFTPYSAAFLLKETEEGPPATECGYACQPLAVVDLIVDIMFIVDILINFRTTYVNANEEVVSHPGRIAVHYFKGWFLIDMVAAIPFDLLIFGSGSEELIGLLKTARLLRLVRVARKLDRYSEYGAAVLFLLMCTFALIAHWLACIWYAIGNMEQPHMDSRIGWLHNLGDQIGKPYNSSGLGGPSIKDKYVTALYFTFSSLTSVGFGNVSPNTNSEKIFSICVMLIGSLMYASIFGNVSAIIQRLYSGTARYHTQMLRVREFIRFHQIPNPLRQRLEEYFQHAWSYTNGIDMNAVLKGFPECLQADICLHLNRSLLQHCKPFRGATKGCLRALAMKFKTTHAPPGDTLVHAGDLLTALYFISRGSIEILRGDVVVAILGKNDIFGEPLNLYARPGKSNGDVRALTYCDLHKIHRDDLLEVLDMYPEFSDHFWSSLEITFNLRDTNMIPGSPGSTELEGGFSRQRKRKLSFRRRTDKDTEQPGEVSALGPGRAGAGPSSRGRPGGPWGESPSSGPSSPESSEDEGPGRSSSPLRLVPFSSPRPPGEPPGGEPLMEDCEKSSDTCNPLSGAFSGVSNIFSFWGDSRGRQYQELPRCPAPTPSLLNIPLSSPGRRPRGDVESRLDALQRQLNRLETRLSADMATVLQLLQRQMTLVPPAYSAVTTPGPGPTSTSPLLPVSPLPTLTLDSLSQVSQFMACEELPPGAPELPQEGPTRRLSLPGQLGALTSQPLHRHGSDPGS

| SMILES | hERG current change (%, negative = inhibition) at 10uM |
| --- | --- |
| Cc1cc(NC(=O)COC(=O)c2ccc(S(=O)(=O)N3CCCC3)cc2)no1 | 18.4% |
| CCN(CC)CC.COc1ccc(OC)c(-n2c(=S)[nH]c3c(sc(=S)n3-c3ccccc3C)c2=O)c1 | 6.14% |
| COc1cc(C(=O)NCC(=O)N2CC=C(c3ccccc3)CC2)cc(OC)c1OC | -51.2% |
| CCOC(=O)C(=O)Nc1ccc(S(=O)(=O)N2CCOCC2)cc1OC | 4.78% |
| Cc1cccc(NC(=O)CSCC(=O)Nc2ccccc2N2CCCCC2)c1 | -1.89% |
| C=CCNC(=O)c1ccc(Cn2cc(C(F)(F)F)ccc2=O)cc1 | 0.469% |
| CC1(C)C(=O)OC(c2ccccc2)C2(CCCC2)C1=O (stereo not drawn) | 7.29% |
| Cc1ccc(S(=O)(=O)CCC(=O)OCC(=O)c2c(C)[nH]c3ccccc23)cc1 | -3.81% |
| COc1ccc(S(=O)(=O)NNc2nc(C)cc(C)n2)cc1[N+](=O)[O-] | 10.3% |
| Nc1nc(CSc2ncn(-c3ccccc3)n2)cs1 | -10.2% |
| CCCN1CCC(=NNC(=O)CSc2cc(C)c(Br)cc2C)CC1 | -28% |
| COCCn1c(C23CC4CC(CC(C4)C2)C3)n[nH]c1=S | -9.76% |
| CC(C)Nc1nc(NC(N)=S)nc(NC(C)(C)C)n1 | 3.77% |
| S=C(NCc1cccnc1)c1ccccc1 | 3.43% |
| Cc1nnc2n1N=CC=C(C(C)(C)C)S2 | -12.5% |
| CCC(Oc1ccccc1)C(=O)N1CC(C)CC(C)C1 (stereo not drawn) | 4.15% |
| FC(F)(F)c1cccc(Oc2cc(C(F)(F)F)nc(-c3ccccn3)n2)c1 | 2.67% |
| CCn1c(N)c(C(=O)NC)sc1=S | -4.1% |
| O=C(C1CCCN(Cc2ccccc2[N+](=O)[O-])C1)N1CCCCC1.O=C(O)C(=O)O (stereo not drawn) | 20.4% |

| SMILES | hERG current change (%, negative = inhibition) at 10uM |
| --- | --- |
| CN1C(=O)[C@@H]2[C@H](C1=O)[C@@H]1C(=O)Nc3ccccc3C(=O)N1[C@@H]2c1ccc(F)cc1 | 0.807% |
| COc1ccc(-c2oc3ccc(-c4cc(OC)c(OC)c(OC)c4)cc3c2C#Cc2ccsc2)cc1 | 10.8% |
| Nc1c(-c2ccc(F)cc2)cnc2ncnn12 | 13.7% |
| CCN(CC)C(=O)COCc1cc(-c2ccc3c(c2)OCO3)on1 | 5.04% |
| CCOc1ccc(C(C)=O)cc1COC(=O)c1cnc(Cl)c(Cl)c1 | 3.09% |
| CCOC(=O)N1CCN(S(=O)(=O)c2ccc3c(c2)CCN3C(=O)C2CCC2)CC1 | -6.37% |
| Cc1cc(C)cc(CC2CC(=O)N(c3ccc4c(c3)OCCO4)C2=O)c1 (stereo not drawn) | -13% |
| Cc1cc([N+](=O)[O-])ccc1NC(=S)NC1CCCC1 | 6.67% |
| CC(C)(C)n1cnc2cc(NC(=O)c3ccccc3)ccc21 | -9.28% |
| CCn1cc(C(=O)OC)c(=O)c2cc(S(=O)(=O)N(C)C3CCCCC3)ccc21 | -28.4% |
| CCOc1cc(C2NC(=O)NC(c3ccccc3)=C2C(C)=O)ccc1OC(C)=O (stereo not drawn) | 23.9% |
| Cc1cc(C)cc(NC(=O)CSc2nnc(CNC(=O)c3ccco3)n2C)c1 | -19.4% |
| O=C1CCCc2c1cc(-c1ccccc1)n2-c1ccc(O)cc1 | -4.94% |
| COc1cc(CN2CCNC(=O)C2CC(=O)NC2CCCCC2)cc(OC)c1 (stereo not drawn) | 5.43% |
| CC(=O)N1c2ccc(S(=O)(=O)N3CCCC(C(=O)Nc4ccc(F)cc4)C3)cc2CC1C (stereo not drawn) | -21.2% |
| COc1cccc(CN2CCNC(=O)C2CC(=O)N(C)CCc2ccccn2)c1OC (stereo not drawn) | 26.9% |
| CCOC(=O)N1CCC(NC(=O)Cn2c3c(c(-c4ccccc4Cl)cc2=O)CCC3)CC1 | -8.61% |
| O=C(NC(=S)Nc1ccc(S(=O)(=O)Nc2nccs2)cc1)c1ccccc1F | 19.6% |
| Cc1cc(C)nc(Nc2n[nH]c(-c3ccccc3C)n2)n1 | -10.5% |

| SMILES | hERG current change (%, negative = inhibition) at 10uM |
| --- | --- |
| CCOC(=O)CCc1c(C)nc(SCc2ccc(C(=O)O)cc2)c(C#N)c1C | -11.7% |
| CCOC(=O)C1CCN(c2c(NCCCN(CC)Cc3ccccc3)c(=O)c2=O)CC1 | -9.32% |
| CC(OC(=O)CNC(=O)c1cccs1)C(=O)Nc1ccc(S(N)(=O)=O)cc1 (stereo not drawn) | 2.3% |
| COc1ccc(NC(=O)CCN2CCN(S(=O)(=O)c3cc(Cl)ccc3Cl)CC2)cc1 | -12.8% |
| O=C(NCC1CCCCC1)c1cc(S(=O)(=O)N2CCOCC2)ccc1F | -2.95% |
| CN(C)CCNc1cnn(-c2ccccc2)c(=O)c1Cl | 14.2% |
| Cc1ccc(NC(=O)CSc2cccc3cccnc23)c(C)c1 | 10.7% |
| Nc1cccc(-n2cccc2)c1 | 18.5% |
| CCCn1c2ccc(F)cc2c2nnc(SCCN3CCCCC3)nc21 | -64.2% |
| O=C(Cn1nc2n(c1=O)-c1ccccc1SC2)N/N=C/c1cccnc1 | -14.3% |
| COc1ccc(-c2ccc(CCC(=O)O)n2-c2ccc(O)cc2)cc1 | 13.3% |
| CCC(C)(C(=O)NC1CCCC1)N(C(=O)c1cnccn1)c1ccccc1 (stereo not drawn) | 2.05% |
| CCC(=O)c1ccc(-c2ccccc2)cc1 | 9.31% |
| CSc1nnc(-c2ccc(Cl)cc2Cl)o1 | 1.62% |
| Cc1ccc(S(=O)(=O)c2c(C)nn(C(C)(C)C)c2OC(=O)C2CCCC2)cc1 | -4.21% |
| COc1cccc(-n2nnnc2SCC(=O)NCCc2ccccc2)c1 | -20.8% |
| O=C1C(C23CC4CC(CC(C4)C2)C3)C(=O)N(c2ccccc2)N1c1ccccc1 | -8.29% |
| CCCCNc1cc(F)nc(N)n1 | -9.45% |
| COc1ccc(CCNC(=O)COc2ccc(S(=O)(=O)N3CCOCC3)cc2C)cc1 | -22.8% |
